Measurements taken from publication PMC4336329 (PLoS ONE, 2015).
Among all 310,000 compounds or so, about 14,000 (4.5%) showed an effect of 50% or more. Effects have a minus sign here. The list shows a part of the results.

Each compound was assayed against human ether-à-go-go-related gene (hERG) potassium channel (human, UniProt Q12809) (assay: primary screen, population patch clamp on CHO cells stably expressing hERG).
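Further: peak tail current of the secondary pulse compared with the same well before compound.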

Sequence of human ether-à-go-go-related gene (hERG) potassium channel (Q12809 whole entry, looked up): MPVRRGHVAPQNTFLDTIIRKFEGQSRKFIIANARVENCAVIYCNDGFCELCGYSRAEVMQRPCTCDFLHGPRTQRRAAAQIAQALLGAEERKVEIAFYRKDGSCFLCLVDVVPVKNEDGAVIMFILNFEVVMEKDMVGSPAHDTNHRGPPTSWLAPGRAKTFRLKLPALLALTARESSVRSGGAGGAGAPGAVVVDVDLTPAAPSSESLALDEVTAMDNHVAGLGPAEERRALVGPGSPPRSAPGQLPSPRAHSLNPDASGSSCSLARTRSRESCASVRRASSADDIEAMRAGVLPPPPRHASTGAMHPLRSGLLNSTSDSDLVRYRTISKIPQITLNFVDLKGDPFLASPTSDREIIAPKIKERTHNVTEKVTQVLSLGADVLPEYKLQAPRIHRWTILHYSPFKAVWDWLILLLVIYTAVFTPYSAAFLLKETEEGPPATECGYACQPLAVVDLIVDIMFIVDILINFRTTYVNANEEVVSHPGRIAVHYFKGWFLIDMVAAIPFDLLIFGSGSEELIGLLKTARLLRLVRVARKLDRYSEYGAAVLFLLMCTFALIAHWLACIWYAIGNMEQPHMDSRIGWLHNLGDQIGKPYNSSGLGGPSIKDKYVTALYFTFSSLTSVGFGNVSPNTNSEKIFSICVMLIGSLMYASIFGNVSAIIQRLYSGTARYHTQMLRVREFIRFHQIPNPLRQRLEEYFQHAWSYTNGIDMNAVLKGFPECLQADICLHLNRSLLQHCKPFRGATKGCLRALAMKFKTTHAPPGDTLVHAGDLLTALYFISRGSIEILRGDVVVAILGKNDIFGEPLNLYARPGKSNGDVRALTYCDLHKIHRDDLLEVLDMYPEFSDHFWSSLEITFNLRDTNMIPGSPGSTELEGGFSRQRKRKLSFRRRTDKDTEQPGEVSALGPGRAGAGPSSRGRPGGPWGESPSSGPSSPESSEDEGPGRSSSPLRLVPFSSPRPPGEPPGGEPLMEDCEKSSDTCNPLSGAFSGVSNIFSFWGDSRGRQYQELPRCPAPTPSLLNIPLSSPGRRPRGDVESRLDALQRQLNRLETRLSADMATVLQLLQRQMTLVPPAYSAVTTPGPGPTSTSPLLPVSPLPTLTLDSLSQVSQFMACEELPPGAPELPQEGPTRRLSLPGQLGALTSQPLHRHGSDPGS

SMILES	hERG current change (%, negative = inhibition) at 10uM
CCOC(=O)C1=C(c2ccccc2)NC(=O)NC1c1cc(OCC)c(O)c([N+](=O)[O-])c1 (stereo not drawn)	22.8%
CC1=C(C(=O)NCc2ccccc2)C(c2ccccc2OCC(N)=O)NC(=O)N1 (stereo not drawn)	-2.76%
CC(C)C(c1nnnn1Cc1ccc2c(c1)OCO2)N1CCN(c2ccccc2)CC1 (stereo not drawn)	23.1%
O=C(COc1ccc(Cl)c2cccnc12)N1CCOCC1	9.56%
CCO[C@@H]1OC(C(=O)O)=C[C@H](C2CCCCC2)[C@H]1CCCO	6%
Cc1cc(C(=O)Nc2ccc(Cl)cc2)c(C)n1Cc1cccs1	-6.19%
CCOC(=O)c1c(NC(=O)c2cccnc2)sc(C(C)=O)c1C	-5.09%
Cc1cccc(NC(=S)N2CCN(C(=O)c3ccco3)CC2)c1	-9.36%
Cc1cc(OCc2cc(C(=O)N(C)CCOc3ccccc3)no2)cc(C)c1Cl	8.54%
Cc1c2ccccc2nc2c(F)c(NCCO)c(F)c(F)c12	-5.67%
COc1cc(C#N)ccc1OCC(=O)Nc1cccc(S(=O)(=O)N2CCCC2)c1	-44.4%
COc1cccc(C(=O)NC(=S)Nc2ccc([N+](=O)[O-])cc2C)c1	3.64%
Cc1onc(-c2c(F)cccc2Cl)c1C(=O)Nc1ccccc1N1CCOCC1	-10.6%
O=C(COC(=O)CN1C(=O)c2ccccc2C1=O)Nc1ncc(Cl)cc1Cl	-14.7%
CCOC(=O)c1c(C)[nH]c(C(=O)OCC(=O)N2CC(C)OC(C)C2)c1C (stereo not drawn)	12.2%
Cc1ccc(S(=O)(=O)N2[C@@H](c3ccccc3)C(C(=O)O)=CC[C@H]2c2ccc(Cl)c(Cl)c2)cc1	23.8%
COc1ccc(-c2nnc(SCC(=O)Nc3ncc(C(F)(F)F)cc3Cl)n2CC(C)C)cc1	-41.7%
Cc1ccc(CCNC(=O)C2CCCN(S(=O)(=O)c3cccc4nsnc34)C2)cc1 (stereo not drawn)	4.66%
S=C(c1ccccc1)N1CCCc2ccccc21	-4.95%
CC1CN(C(=O)Cn2cc(S(=O)(=O)CC(=O)N3CCOCC3)c3ccccc32)CC(C)O1 (stereo not drawn)	17.3%
Cc1ccc(C2=NN(CC(=O)NCc3ccccn3)C(=O)CC2)cc1	-11.6%
Cc1ccc(CNC(=O)CN(C(=O)C2(C)CC(=O)N=C3C=CC=CN32)c2cccc(C)c2C)cc1 (stereo not drawn)	8.06%
Cc1ccc(C)c(CSc2nnc(C)c(=O)[nH]2)c1	13.6%
CCOC(=O)c1c(C)oc(C)c(C(=O)OCC)c1=O	22.7%
COc1ccc(CS(=O)(=O)c2nc(C)cc(C)c2S(C)(=O)=O)cc1	0.759%
COc1cc(NS(=O)(=O)c2ccc(N/C=C(\C#N)c3nc4ccccc4o3)cc2)nc(OC)n1	-13.6%

SMILES	hERG current change (%, negative = inhibition) at 10uM
CC(=O)Nc1ccc(Nc2nnc(-c3ccc(C)c(S(N)(=O)=O)c3)c3ccccc23)cc1	12.7%
CC1Cc2ccccc2N1C(=O)Cn1c(=O)oc2cc(S(=O)(=O)N3CCCCC3)ccc21 (stereo not drawn)	-4.06%
CC1CCN(S(=O)(=O)c2ccc(C(=O)N3CCCC3C(=O)O)cc2)CC1 (stereo not drawn)	11%
O=C1CC(NS(=O)(=O)c2cc(F)ccc2F)CN1c1cccc(F)c1 (stereo not drawn)	7.04%
O=C(NNS(=O)(=O)c1ccccc1[N+](=O)[O-])c1ccccc1[N+](=O)[O-]	33.7%
CN1CCN(S(=O)(=O)c2cccc(C(=O)Nc3cc(C(F)(F)F)ccc3N3CCCCC3)c2)CC1	6.04%
Cc1cc(OC(=O)c2cccs2)ccc1C(C)C	12.1%
CN(C)c1ccc(/C=C2/SC(=O)N(CCN=C3NS(=O)(=O)c4ccccc43)C2=O)cc1	6.14%
CCOc1ccc(C(=O)Nc2ccccc2NC(C)=O)cc1OCC	17.6%
COc1ccc(/C=C2\SC(=S)N(CCC(=O)N(CCO)Cc3ccccc3)C2=O)cc1OC	-0.362%
COc1ccc(CCC(=O)N2CCN(S(=O)(=O)c3ccc4ccccc4c3)CC2)cc1	1.63%
CCOC(=O)C1(Cc2ccccc2C)CCCN(C(=O)c2ccccn2)C1 (stereo not drawn)	10.8%
C=CCNc1sc(C(=O)c2ccccc2)c(N)c1-c1nc2ccccc2s1	12%
COc1ccc(C2C3=C(CC(C)(C)CC3=O)Nc3c2c(=O)[nH]c(=O)n3Cc2ccccc2)cc1 (stereo not drawn)	8.57%
O=c1cc(N2CCc3ccccc32)[nH]c(=O)n1-c1ccc(Cl)cc1	10.6%
CC(C)CCC(CC(C)O)c1n[nH]c(=S)n1-c1ccccc1 (stereo not drawn)	19%
Cc1cc(C)c(S(=O)(=O)N2CCN(c3ccc([N+](=O)[O-])c(NCc4ccco4)c3)CC2)c(C)c1	16.5%
CC(C)NC(=O)c1ccc(-c2cccc(C(F)(F)F)c2)o1	7.19%
Cc1ccc(NC(=O)c2cccc(OCc3c(C)noc3C)c2)cc1S(=O)(=O)Nc1ccccc1Cl	-3.21%
COc1ccc(CC(=O)NCc2n[nH]c(=S)n2-c2ccccc2)cc1	15.1%
CCC1SC2=NC(C)=C(C(=O)OC)C(c3ccc(C(=O)OC)cc3)N2C1=O (stereo not drawn)	-5.68%
Cc1ccc(C)c(C(=O)COC(=O)CCCC(=O)Nc2cc(C(F)(F)F)ccc2Cl)c1	28.4%
CC1CCN(C(=O)c2ccc(S(=O)(=O)NCc3ccco3)cc2)CC1	16.3%
C=CCN(c1ccccc1)S(=O)(=O)c1cccc(C(=O)NCc2ccncc2)c1	-27.1%
Cc1ccc(S(=O)(=O)c2cc3c(=O)n4ccccc4nc3n(Cc3ccco3)c2=N)cc1	-11.2%
